Experimental findings from article PMC4336329 (PLoS ONE, 2015) are described below.

Molecules are shown by their SMILES. Among all 310,000 compounds or so, about 14,000 (4.5%) showed an effect of 50% or more. The effect is printed as a negative number. This is one part of the list.
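Note: peak tail current of the secondary pulse compared with the same well before compound.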

The target of this assay is human ether-à-go-go-related gene (hERG) potassium channel (human, UniProt Q12809). Nature of the assay: primary screen, population patch clamp on CHO cells stably expressing hERG.
Sequence of human ether-à-go-go-related gene (hERG) potassium channel (Q12809 whole entry, looked up): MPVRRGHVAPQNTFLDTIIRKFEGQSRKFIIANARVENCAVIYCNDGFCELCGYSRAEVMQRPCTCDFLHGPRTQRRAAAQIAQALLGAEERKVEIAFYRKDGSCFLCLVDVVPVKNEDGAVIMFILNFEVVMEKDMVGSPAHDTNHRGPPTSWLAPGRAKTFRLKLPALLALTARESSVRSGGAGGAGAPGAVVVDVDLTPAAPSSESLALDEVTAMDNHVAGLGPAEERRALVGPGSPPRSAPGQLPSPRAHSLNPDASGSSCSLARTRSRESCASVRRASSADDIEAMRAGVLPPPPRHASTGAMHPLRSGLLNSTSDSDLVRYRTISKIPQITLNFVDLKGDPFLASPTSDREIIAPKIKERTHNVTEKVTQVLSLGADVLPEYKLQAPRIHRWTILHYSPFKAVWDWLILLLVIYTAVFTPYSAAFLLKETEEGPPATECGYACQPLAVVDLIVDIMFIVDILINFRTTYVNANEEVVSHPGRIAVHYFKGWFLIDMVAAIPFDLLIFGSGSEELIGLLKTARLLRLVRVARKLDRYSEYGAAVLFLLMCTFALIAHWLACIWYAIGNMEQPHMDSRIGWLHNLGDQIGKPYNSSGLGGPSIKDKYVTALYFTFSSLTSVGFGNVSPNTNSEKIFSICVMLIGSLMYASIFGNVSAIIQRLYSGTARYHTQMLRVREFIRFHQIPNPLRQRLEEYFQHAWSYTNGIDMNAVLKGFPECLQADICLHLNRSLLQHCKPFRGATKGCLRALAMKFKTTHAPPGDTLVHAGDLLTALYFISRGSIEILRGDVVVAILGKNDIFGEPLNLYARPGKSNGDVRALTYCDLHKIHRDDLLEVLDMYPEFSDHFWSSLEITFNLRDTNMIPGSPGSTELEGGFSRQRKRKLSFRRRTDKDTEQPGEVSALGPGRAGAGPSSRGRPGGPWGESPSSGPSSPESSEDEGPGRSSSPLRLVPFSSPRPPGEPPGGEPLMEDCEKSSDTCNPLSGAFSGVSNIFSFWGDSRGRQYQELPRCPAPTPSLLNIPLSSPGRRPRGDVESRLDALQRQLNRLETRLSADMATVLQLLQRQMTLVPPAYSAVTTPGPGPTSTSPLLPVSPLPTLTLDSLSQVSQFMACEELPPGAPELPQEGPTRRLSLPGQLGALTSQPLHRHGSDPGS
Take `O=C(CCN1C(=O)C2C3C=CC(C3)C2C1=O)Nc1ccc(F)cc1` (centres unmarked): the “hERG current change (%, negative = inhibition) at 10uM” value is -1.72%. Next, `CCCn1c(SCC(=O)NCC)nc2sc3c(c2c1=O)CCC3`: 0.894%; `CCn1c(SCC(=O)Nc2ccc3c(c2)OCO3)nnc1-c1ccccc1O`: 7.21%; `CCN1C[C@]2(C)CC[C@H](O)[C@]34C1[C@H](C[C@H]23)[C@@]1(O)C[C@H](OC)[C@H]2C[C@@H]4[C@@H]1C2O` (some centres unmarked): 15.2%. The result for `COc1ccc(C(=O)NCCC(=O)NCc2cc(=O)n(C)c(=O)n2C)cc1` reads 20.7%. The result for `S=C(NC1CCCCC1)N1CCOCCOCCN(C(=S)NC2CCCCC2)CCOCC1` reads -5.84%; that for `COc1ccc(Nc2ncnc3ccccc23)c(OC)c1.Cl`, -10.2%; that for `CCC(=O)N1CCc2cc(S(=O)(=O)NC(CC(C)C)C(=O)N3CCc4ccccc43)ccc21` (centres unmarked), -2.28%. As for `S=c1[nH]c2ccccc2o1`, the “hERG current change (%, negative = inhibition) at 10uM” value stood at 18%. Next, `COc1cccc(CN(CC2CCCO2)S(=O)(=O)c2ccc(-n3cnnn3)c(OC)c2)c1` (centres unmarked): -28.1%; `CCCc1nc(SCC(=O)NNC(=O)C2CCCCC2)c2ccccc2n1`: -2.77%. Next, `Cc1c2ccccc2nc2c(F)c(NC(C)C)c(F)c(F)c12`: -2.39%; `Cc1cccc(C=Nc2ccc3c4c(cccc24)CC3)c1O`: 14%.

Turning to `CC(=O)c1ccc(S(=O)(=O)N2CCN(C(=O)c3ccc(-n4cncn4)c([N+](=O)[O-])c3)CC2)cc1`, the “hERG current change (%, negative = inhibition) at 10uM” value is -19.7%. The result for `Cc1ccc(Cl)cc1NC(=O)NCc1cccnc1` reads 13.2%; that for `S=C(NCCN1CCOCC1)N1CCN(c2cccc(Cl)c2)CC1`, -16%; that for `O=C1CC(C(=O)Nc2ccccc2)N=C(N2CCOCC2)N1` (centres unmarked), 3.33%. The result for `CC(=O)c1cc(F)c(N2CCN(CCC#N)CC2)cc1C` reads 9.89%; that for `COc1cccc2oc(-c3ccco3)cc(=O)c12`, -1.12%; that for `CCOc1ccc(-c2nc(CSCC(=O)NC3CCCc4ccccc43)c(C)o2)cc1` (centres unmarked), -23.6%.

As for `COCCNC(=O)C(=O)c1cc(C)n(-c2ccc([N+](=O)[O-])cc2)c1C`, the “hERG current change (%, negative = inhibition) at 10uM” value is recorded as -42%.

In the case of `COC(=O)c1nc(N)sc1C(C)C`, the “hERG current change (%, negative = inhibition) at 10uM” value turned out to be 33.9%. The result for `CCOC(=O)c1c(NC(=O)Cn2cnc3sc(C)c(-c4ccccc4)c3c2=O)sc(C)c1C` reads 3.9%; that for `CSCCC(NC(N)=O)C(=O)N(C)CC(=O)Nc1ccc(C)cc1` (centres unmarked), 6.41%; that for `CCOC(=O)Cc1c(C)nc2c(-c3ccccc3)c(-c3ccccc3)[nH]n2c1=O`, -13.3%. Next, `CN(C)S(=O)(=O)c1ccc(N=Cc2c(C(F)(F)F)[nH]n(C)c2=O)cc1`: 14.9%. Next, `CC(C)N1C(=O)CCC1C(=O)O` (centres unmarked): 12.8%; `CCOC(=O)c1nc(SC)n(C)c1C(=O)OCC`: 14.5%; `O=C(c1ccc(F)cc1)N1CCCCC(Sc2nnc3ccccn23)C1=O` (centres unmarked): -59.9%. In the case of `CCSC1=C(C#N)C(c2cccc(O)c2)CC(=O)N1` (centres unmarked), the “hERG current change (%, negative = inhibition) at 10uM” value is reported as 2.7%. The result for `CCn1c(-c2ccc(C)cc2)nn(CC(=O)NCCc2ccccc2)c1=S` reads -17.6%; that for `O=C(Nc1ccncc1)c1ccc2c(c1)C(=O)N(CC1CCCO1)C2=O` (centres unmarked), -12.7%; that for `O=C(c1ccccc1)N(Cc1cccnc1)C1(C(=O)Nc2ccccc2)CCCCC1`, 5.29%. The result for `CC1(C)CCC[C@@]2(C)CC=C(C(=O)O)[C@@H]3C[C@]312` reads 11.7%; that for `CCOc1c(OC)cccc1C1CC(=O)Nc2cc3c(cc21)OCCO3` (centres unmarked), -1.63%; that for `CCC(=O)Nc1sc(C(=O)Nc2ccccc2F)c(C)c1C(=O)OC`, 1.65%. The result for `CCS(=O)(=O)N1CCN(c2ccc([N+](=O)[O-])c(N3CCOCC3)c2)CC1` reads -0.384%; that for `CCN(CC)CCNC(=O)C1CCN(S(=O)(=O)c2c(C)noc2/C=C/c2ccccc2F)CC1`, -36.2%; that for `O=C(Oc1c(Br)cc(C(=S)N2CCOCC2)cc1Br)c1ccc(Cl)cc1`, 11.3%. Regarding `CC12COC3(C(=O)N4CCN(c5ccccn5)CC4)CC1CCC32C` (centres unmarked), the “hERG current change (%, negative = inhibition) at 10uM” value is -17.7%. The result for `CCOc1ccc(C(C)=O)cc1Cn1c(=O)oc2ccccc21` reads 4.36%; that for `CC(=O)c1c(C)[nH]c(C(=O)OCc2ccccc2F)c1C`, 8.53%; that for `CSc1nc2ccc3nc(NC(=O)c4ccc(C)cc4)sc3c2s1`, 15.7%. Next, `CCOc1ccc(C(=O)NCC(=O)OCc2c(C)noc2C)cc1`: -1.61%.
